Assay results taken from publication PMC4336329 (PLoS ONE, 2015).
Screen size: about 310,000 compounds; about 2,200 (0.71%) showed an effect of 50% or more. Effects have a minus sign here. Some of the results follow.

biological target: human ether-à-go-go-related gene (hERG) potassium channel (human, UniProt Q12809); assay: primary screen, population patch clamp on CHO cells stably expressing hERG
Sequence (Q12809 whole entry, looked up): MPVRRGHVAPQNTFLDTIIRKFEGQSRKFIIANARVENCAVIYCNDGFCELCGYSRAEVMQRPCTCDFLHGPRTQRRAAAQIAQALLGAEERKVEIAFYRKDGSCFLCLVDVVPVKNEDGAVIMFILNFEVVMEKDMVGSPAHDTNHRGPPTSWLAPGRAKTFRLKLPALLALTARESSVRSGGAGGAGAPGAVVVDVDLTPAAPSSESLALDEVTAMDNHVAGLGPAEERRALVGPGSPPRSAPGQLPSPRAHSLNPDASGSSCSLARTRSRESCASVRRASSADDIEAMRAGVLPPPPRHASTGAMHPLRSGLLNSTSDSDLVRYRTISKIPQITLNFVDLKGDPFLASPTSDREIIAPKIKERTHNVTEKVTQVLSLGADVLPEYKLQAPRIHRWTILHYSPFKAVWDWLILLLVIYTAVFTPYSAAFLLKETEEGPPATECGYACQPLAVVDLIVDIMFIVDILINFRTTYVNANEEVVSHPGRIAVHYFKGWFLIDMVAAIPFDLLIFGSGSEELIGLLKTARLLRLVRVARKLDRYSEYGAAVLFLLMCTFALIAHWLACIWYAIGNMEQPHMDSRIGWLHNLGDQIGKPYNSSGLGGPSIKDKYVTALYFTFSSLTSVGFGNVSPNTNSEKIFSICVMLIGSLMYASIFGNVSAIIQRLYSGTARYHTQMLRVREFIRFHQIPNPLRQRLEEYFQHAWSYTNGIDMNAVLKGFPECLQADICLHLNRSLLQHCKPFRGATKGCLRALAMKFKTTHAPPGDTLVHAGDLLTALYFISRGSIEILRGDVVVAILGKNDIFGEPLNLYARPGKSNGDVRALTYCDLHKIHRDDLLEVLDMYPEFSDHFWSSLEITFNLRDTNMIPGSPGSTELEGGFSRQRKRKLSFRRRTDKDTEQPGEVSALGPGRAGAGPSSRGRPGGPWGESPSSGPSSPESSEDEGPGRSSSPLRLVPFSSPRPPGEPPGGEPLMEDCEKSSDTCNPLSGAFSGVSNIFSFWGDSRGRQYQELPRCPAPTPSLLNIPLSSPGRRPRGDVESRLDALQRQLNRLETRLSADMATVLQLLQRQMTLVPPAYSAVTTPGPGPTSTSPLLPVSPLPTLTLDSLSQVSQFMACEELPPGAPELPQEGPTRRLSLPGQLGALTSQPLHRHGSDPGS

First: CCc1ccc(-c2cc3c(=O)n(CC(=O)NCCCN4CCN(C)CC4)ncn3n2)cc1
Second: Cc1cc(C)n(-c2ccc(C(=O)NCCCN3CCOCC3)cc2)n1
The “hERG current change (%, negative = inhibition) at 1uM” value of the first is lower: 3.4% for the first, 13.4% for the second.

Going from O=C(NCCCCc1ccccc1)Nc1ccc(F)cc1F to O=C(COC(=O)C1CC(=O)N(Cc2ccccc2)C1)Nc1ccccc1F (stereo not shown), the “hERG current change (%, negative = inhibition) at 1uM” value rises from 12% to 12.4%.

First: O=C(/C=C/c1c(Cl)cccc1Cl)N1CCN(c2ncccn2)CC1
Second: Cc1nc(N2CCN(C(=O)COc3ccccc3)CC2)c2c(C)c(C)sc2n1.Cl
The “hERG current change (%, negative = inhibition) at 1uM” value of the first is lower: -53% for the first, -29.3% for the second.

First: Cc1ccc(NC(=O)CSCC(=O)Nc2cccc(S(=O)(=O)N3CCCCCC3)c2)cc1
Second: NC(=O)c1ccc(-c2nnn(CC(=O)Nc3cccc(S(=O)(=O)N4CCCC4)c3)n2)cc1
The “hERG current change (%, negative = inhibition) at 1uM” value of the first is lower: 4.25% for the first, 11.6% for the second.

First: CCOC(=O)c1ccc(NC(=O)c2cc3c(C)nn(-c4ccccc4Cl)c3s2)s1
Second: COc1ccc(-n2nc(C(=O)NCc3ccco3)c3c4ccccc4n(C)c3c2=O)cc1Cl
The “hERG current change (%, negative = inhibition) at 1uM” value of the first is higher: 15.4% for the first, 7.91% for the second.

First: COc1ccccc1-c1nc(C#N)c(N2CCN(c3cccc(Cl)c3)CC2)o1
Second: COc1ccccc1-c1cc(C(=O)N2CCc3ccccc3C2)c2ccccc2n1
The “hERG current change (%, negative = inhibition) at 1uM” value of the first is lower: 1.63% for the first, 13.2% for the second.

Going from Cc1ccc(C2/C(=C(/O)c3ccc(Cl)cc3)C(=O)C(=O)N2CC2CCCO2)o1 (stereo not shown) to O=S(=O)(Oc1ccc(C(=S)N2CCOCC2)cc1)c1ccc(Cl)cc1, the “hERG current change (%, negative = inhibition) at 1uM” value rises from 12.5% to 17.2%.

Compared with COc1ccc(CC(=O)NCc2nnc(SCC(=O)Nc3ncc(C)s3)n2C)cc1, C=CCn1c(SCC(=O)Nc2nccs2)nnc1-c1ccco1 is lower in “hERG current change (%, negative = inhibition) at 1uM” value: 8.24% for the first, -10.8% for the second.

Compared with O=C(CN1C(=O)COc2ccccc21)N1CCCC1, CC1CCCN(C(=O)Cn2nnc(-c3ccccc3F)n2)C1 (stereo not shown) is lower in “hERG current change (%, negative = inhibition) at 1uM” value: 14.3% for the first, 13.2% for the second.

Compared with CC(C)OC(=O)c1c2c(n3ccccc13)C(=O)c1ccccc1C2=O, O=C(CCN1C(=O)c2ccccc2C1=O)Nc1ccccc1C(F)(F)F is lower in “hERG current change (%, negative = inhibition) at 1uM” value: 8.56% for the first, 3.27% for the second.

First: CCCC(=O)c1ccc2c(c1)OCCO2
Second: CCOC(=O)CSC1=C(C#N)C(c2ccc3c(c2)OCO3)CC(=O)N1 (stereo not shown)
The “hERG current change (%, negative = inhibition) at 1uM” value of the first is lower: 13.4% for the first, 14% for the second.

Compared with Cc1ccc(C)c(NC(=O)CN(C)C(=O)CSCc2c(C)noc2C)c1, COc1ccc(C)cc1NC(=O)CSc1nnc(-c2ccc(Br)cc2)o1 is higher in “hERG current change (%, negative = inhibition) at 1uM” value: -6.25% for the first, 0.856% for the second.

Compared with COc1ccc(C(=O)Nc2c(N)nc(SCC(=O)N3CCC(C)CC3)[nH]c2=O)cc1OC, COc1ccc(C(=O)NCC(=O)OCC(=O)c2cc(OC)c(OC)c(OC)c2)cc1OC is higher in “hERG current change (%, negative = inhibition) at 1uM” value: 11.6% for the first, 15.4% for the second.

First: COc1cc(S(=O)(=O)N2CCOCC2)cc(C(=O)c2nccn2C)c1OC
Second: CCOc1ccc2nc(NC(=O)c3ccc(S(=O)(=O)N4CCOCC4)cc3)sc2c1
The “hERG current change (%, negative = inhibition) at 1uM” value of the first is higher: 16.9% for the first, 9.49% for the second.

First: COC(=O)c1cc(-c2ccc(Cl)cc2)n(-c2ccc(S(N)(=O)=O)cc2)n1
Second: COC(=O)c1ccc(CSc2ccc(S(=O)(=O)N3CCCCC3)cn2)cc1
The “hERG current change (%, negative = inhibition) at 1uM” value of the first is lower: 0.875% for the first, 16.9% for the second.

First: NC(=O)C1CCN(C(=O)c2cc3ccccn3n2)CC1
Second: O=C(c1ccc(Br)cc1)N1CCN(Cc2ccccc2)CC1
The “hERG current change (%, negative = inhibition) at 1uM” value of the first is higher: 3.87% for the first, -9.98% for the second.

Going from O=C(NCCCCCCNC(=O)c1ccncc1)c1ccncc1 to O=C(Nc1cccc2c1CCCC2)c1ccncc1, the “hERG current change (%, negative = inhibition) at 1uM” value rises from 9.73% to 9.88%.

Going from COc1cccc(N2CCN(C(=O)CN(C)S(=O)(=O)c3ccc4c(c3)c(=O)n(C)c(=O)n4C)CC2)c1 to CCC(=O)N1CCc2cc(S(=O)(=O)CCC(=O)N(C)c3ccc(OC)cc3)ccc21, the “hERG current change (%, negative = inhibition) at 1uM” value falls from 11.1% to 2.07%.

Compared with Cc1cccc(N2Cc3ccc(Br)cc3C2)c1, CCCN1Cc2cccc(C(=O)Nc3ccc(C)cc3)c2C1=O is higher in “hERG current change (%, negative = inhibition) at 1uM” value: 10.6% for the first, 20.6% for the second.

Going from COc1cc(/C=C/c2nc(-c3ccccc3O)n[nH]2)cc(OC)c1OC to COc1ccc(C2N=C(c3ccccc3)NO2)cc1OC (stereo not shown), the “hERG current change (%, negative = inhibition) at 1uM” value falls from 14.6% to 12.5%.

First: O=C(CSc1n[nH]c(-c2ccco2)n1)Nc1ccccc1Cl
Second: O=C(COC(=O)c1cccnc1Cl)Nc1nc(-c2ccccc2)cs1
The “hERG current change (%, negative = inhibition) at 1uM” value of the first is higher: 12.2% for the first, 2% for the second.

Compared with CCC(Oc1ccccc1F)C(=O)NCCN1CCOCC1 (stereo not shown), O=C(NCCN1CCOCC1)c1ccc(Cl)cc1[N+](=O)[O-] is lower in “hERG current change (%, negative = inhibition) at 1uM” value: 12.4% for the first, 7.62% for the second.

Compared with COc1ccc(-c2ccc(OC)c([C@H]3[C@H]4C=CC[C@@H](C)[C@@H]4C(=O)N3Cc3ccccc3)c2)cc1, CCC(=O)Oc1oc(-c2ccccc2)nc1C=Nc1ccccc1OC is higher in “hERG current change (%, negative = inhibition) at 1uM” value: 9.57% for the first, 12.2% for the second.

Going from Cc1sc(N/N=C/c2cc([N+](=O)[O-])ccc2O)nc1-c1ccccc1 to Cc1ccc(C(=O)COC(=O)c2cccc([N+](=O)[O-])c2)s1, the “hERG current change (%, negative = inhibition) at 1uM” value falls from 13.1% to 2.6%.

Compared with CCOC(=O)N1CCN(C(=O)C2CCCN(c3nc4ccc(OCC)cc4s3)C2)CC1 (stereo not shown), COc1ccc(N2CCN(C3CCCN(Cc4ccc(F)c(F)c4)C3)CC2)cc1 (stereo not shown) is lower in “hERG current change (%, negative = inhibition) at 1uM” value: -3.97% for the first, -10.9% for the second.

Going from O=C(OCc1ccc(Cl)c(Cl)c1)c1cnccn1 to COc1cccc(CSc2nccn2C)c1, the “hERG current change (%, negative = inhibition) at 1uM” value rises from 12.3% to 17%.

Going from O=c1cnnc(Nc2cccc(C(F)(F)F)c2)[nH]1 to CC(=O)Nc1ccccc1OCC(O)CS(=O)(=O)c1ccc(C(F)(F)F)cn1 (stereo not shown), the “hERG current change (%, negative = inhibition) at 1uM” value rises from 14.2% to 15%.

First: CCOC(=O)c1ccc(CNCc2ccc(Br)cc2)cc1
Second: CC(=O)n1nc(-c2ccccc2)nc1NCc1ccc(F)cc1
The “hERG current change (%, negative = inhibition) at 1uM” value of the first is lower: -2.21% for the first, 13.2% for the second.

First: Cc1ccc(-n2c(-c3cn(C)nc3C)n[nH]c2=S)cc1
Second: CCOC(=O)c1c(C#N)cnn1-c1ccc(C)cc1
The “hERG current change (%, negative = inhibition) at 1uM” value of the first is higher: 18.4% for the first, 6.65% for the second.

Going from CC1CCc2c(sc3nc(CN4CCN(S(=O)(=O)c5ccccc5[N+](=O)[O-])CC4)[nH]c(=O)c23)C1 (stereo not shown) to O=C(Nc1ccc(F)cc1F)C1CCCN1S(=O)(=O)c1ccc(-c2ccc(=O)[nH]n2)s1 (stereo not shown), the “hERG current change (%, negative = inhibition) at 1uM” value falls from -0.366% to -0.985%.

Compared with Cc1c(C(=O)O)cnc2c([N+](=O)[O-])cnn12, O=C(O)c1cccc(N2C(=O)CSC2=S)c1 is lower in “hERG current change (%, negative = inhibition) at 1uM” value: 21.1% for the first, 11.7% for the second.

Going from CC(O)CNCCOc1ccccc1OCc1ccccc1.O=C(O)C(=O)O (stereo not shown) to O=C(COC(=O)c1ccccc1O)NCC1COc2ccccc2O1 (stereo not shown), the “hERG current change (%, negative = inhibition) at 1uM” value rises from 14% to 18.5%.

First: CCN(CC)CCNC(=O)c1cn(CC)c2cc(N3CCN(C(=O)c4ccco4)CC3)c(F)cc2c1=O.Cl
Second: CCCCN(C)CCCNC(=O)c1cn(CC)c2ccc(S(=O)(=O)N3CCOCC3)cc2c1=O
The “hERG current change (%, negative = inhibition) at 1uM” value of the first is lower: 4.66% for the first, 18.8% for the second.

Compared with Cc1cc(C(=O)OC(C)C(=O)NC2CCCCC2)c(C)o1 (stereo not shown), O=C(NCC(=O)N(c1ccc(F)cc1)C(C(=O)NC1CCCC1)c1cccnc1)c1cccs1 (stereo not shown) is lower in “hERG current change (%, negative = inhibition) at 1uM” value: 8.09% for the first, 6.76% for the second.

First: COc1ccc(NC(=O)C2CCCN2c2ccc(OC)c(OC)c2)cc1OC (stereo not shown)
Second: COc1ccc(/C=C2\Sc3ccc(C(=O)NCCN4CCCCCC4)cc3N(C)C2=O)cc1
The “hERG current change (%, negative = inhibition) at 1uM” value of the first is higher: 13.3% for the first, 8.93% for the second.

Going from CC(C)(C)c1ccc(C(=O)NCC(=O)N2CCNC(=O)C2)cc1 to CCc1ccc(C(=O)NC(C(=O)O)C(C)C)cc1 (stereo not shown), the “hERG current change (%, negative = inhibition) at 1uM” value falls from 1.06% to -1.76%.

First: O=C(CCCN1C(=O)[C@H]2CC=CC[C@H]2C1=O)NCc1nc(-c2ccccc2)no1
Second: Cn1c(=O)c2c(-c3ccccc3)n(C3CCCCC3)cc2n(C)c1=O
The “hERG current change (%, negative = inhibition) at 1uM” value of the first is higher: 14.9% for the first, 10.5% for the second.

Compared with Cc1c(NP(=S)(C(C)(C)C)C(C)(C)C)c(=O)n(-c2ccccc2)n1C, CCOC(=O)CC1COCCN1Cc1cn(C)nc1-c1ccccc1F (stereo not shown) is higher in “hERG current change (%, negative = inhibition) at 1uM” value: 4.41% for the first, 6.37% for the second.

Going from Cc1oc(-c2ccccc2Cl)nc1CSc1nc2c(c(=O)[nH]1)CCC2 to CCOc1ccc(C(=O)COC(=O)Cc2n[nH]c(=O)c3ccccc23)cc1, the “hERG current change (%, negative = inhibition) at 1uM” value falls from 11% to 0.946%.

Compared with CCC1=NN(C(=O)C(=O)Nc2ccc(Br)cc2)C(O)(C(F)(F)F)C1 (stereo not shown), NC(=O)c1ccc(NC(=O)COC(=O)c2ccccc2Nc2ccccc2)cc1 is lower in “hERG current change (%, negative = inhibition) at 1uM” value: 13.1% for the first, -2.98% for the second.

Compared with NC(=O)c1ccc(-n2c(CCC(=O)O)ccc2-c2cccs2)cc1, CN(C)c1ccc(/C=C(\C#N)C(=O)Nc2nc3c(s2)CCN(Cc2ccccc2)C3)cc1 is higher in “hERG current change (%, negative = inhibition) at 1uM” value: 8.72% for the first, 17.9% for the second.

Compared with CCN1C(=O)/C(=C\c2ccncc2)SC1=Nc1ccc(C)c(C)c1, Cn1c(Cn2c3ccccc3c3ccccc32)n[nH]c1=S is higher in “hERG current change (%, negative = inhibition) at 1uM” value: 4.3% for the first, 10.4% for the second.

First: CCC(c1nnnn1C(C)C)N1CCN(C2CCCC2)CC1.Cl (stereo not shown)
Second: COc1ccc(C2SCC(=O)N2c2nnc(C34CC5CC(CC(C5)C3)C4)s2)cc1 (stereo not shown)
The “hERG current change (%, negative = inhibition) at 1uM” value of the first is lower: 8.37% for the first, 8.63% for the second.

Compared with CCOc1ccccc1Nc1ncnc2c1cnn2-c1ccccc1, CCCCSc1nnc(-c2ccccc2)c2ccccc12 is higher in “hERG current change (%, negative = inhibition) at 1uM” value: -0.541% for the first, 4.51% for the second.
